# Assay results reported in the supplement of paper PMC8728848.
# Some of the results follow.
# B1: PX9961U-pdi-543-24-543 (Parabacteroides distasonis) (protein)
# chain: EEPVGEFLPGQVESEENIEGIVTGAYAVLDGYYASDAINSGCSNWQFGDVVSDDAYKGGGGTGDQNQIHLMEIFNANPTGIDFEARWAALYEGIKRCNQAIRLLNGSEVKNKEQRLAEMRFLRGHYYFNLKIIYNQIPWIDETLVDPNEYNKKSNIEFSSDQLWEKILEEFSAAYKVLPESQADYGRPTKMAARAYMAKVYLYQSKWKECLEACDEVIQSGKYELFPDFRNVFLPENDNCSEIIFAIQLSINDGSPNNENGSYGDRLLPPGGPYPVYGFLRPTQNLVNAYKTDVKGLPYNDGKDVSENDYVDVRLDHTLARPNIPFMDVQLYDWTPREASVYGPYSPKKRLVSLNSTYYSPIWPYVNALNFYVIRYADLLLWRAEAAIETGDLETGRKYINMIRERAKNTQHVKTMDQSQDAANYKVGVYDEPFKSKNEAVQALRMERRLEMAHEGIRFFDLVRWGVADEVINAYIAKEKVFRSHLQNAHFVKGKHEYFPIPQSMIDICGTEVMKQNPGY
# What was measured:
# Experiment in all cases: glycan array binding signal (z-score within array); higher = stronger binding
# Conditions in all cases: glycan notation: IUPAC condensed, linker removed
# [1] = molecular target: Neu5Ac(a2-3)Gal(b1-3)GalNAc
# In short: (§1)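 The binding signal is a Z-score computed within each array and averaged over linkers. Arrays of the same protein sequence at different concentrations or buffers were also averaged together. Data originate from 3228 arrays in the Consortium for Functional Glycomics database, kept only where the protein sequence was available.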
# [2] = molecular target: Neu5Ac(a2-3)Gal(b1-3)GalNAc(b1-3)Gal(a1-4)Gal(b1-4)Glc
# In short: as §1
# [3] = molecular target: Neu5Ac(a2-3)Gal(b1-3)GalNAc(b1-4)[Neu5Ac(a2-3)]Gal(b1-4)Glc
# In short: as §1
# [4] = molecular target: Neu5Ac(a2-3)Gal(b1-3)GalNAc(b1-4)[Neu5Ac(a2-8)Neu5Ac(a2-3)]Gal(b1-4)Glc
# In short: as §1
# [5] = molecular target: Neu5Ac(a2-3)Gal(b1-3)GalNAc6S
# In short: as §1
# [6] = molecular target: Neu5Ac(a2-3)Gal(b1-3)GlcNAc
# In short: as §1
# [7] = molecular target: Neu5Ac(a2-3)Gal(b1-3)GlcNAc(b1-2)Man
# In short: as §1
# [8] = molecular target: Neu5Ac(a2-3)Gal(b1-3)GlcNAc(b1-2)Man(a1-3)[GlcNAc(b1-4)][Neu5Ac(a2-3)Gal(b1-3)GlcNAc(b1-2)Man(a1-6)]Man(b1-4)GlcNAc(b1-4)GlcNAc
# In short: as §1
# [9] = molecular target: Neu5Ac(a2-3)Gal(b1-3)GlcNAc(b1-2)Man(a1-3)[Neu5Ac(a2-3)Gal(b1-3)GlcNAc(b1-2)Man(a1-6)]Man(b1-4)GlcNAc(b1-4)GlcNAc
# In short: as §1
# [10] = molecular target: Neu5Ac(a2-3)Gal(b1-3)GlcNAc(b1-3)Gal(b1-3)GlcNAc
# In short: as §1
# [11] = molecular target: Neu5Ac(a2-3)Gal(b1-3)GlcNAc(b1-3)Gal(b1-4)GlcNAc
# In short: as §1
# [12] = molecular target: Neu5Ac(a2-3)Gal(b1-3)GlcNAc(b1-3)GalNAc
# In short: as §1
# [13] = molecular target: Neu5Ac(a2-3)Gal(b1-3)GlcNAc(b1-4)Gal(b1-4)Glc
# In short: as §1
# [14] = molecular target: Neu5Ac(a2-3)Gal(b1-3)GlcNAc(b1-6)GalNAc
# In short: as §1
# [15] = molecular target: Neu5Ac(a2-3)Gal(b1-3)GlcNAc6S
# In short: as §1
# [16] = molecular target: Neu5Ac(a2-3)Gal(b1-3)[Fuc(a1-4)]GlcNAc
# In short: as §1
# [17] = molecular target: Neu5Ac(a2-3)Gal(b1-3)[Fuc(a1-4)]GlcNAc(b1-3)Gal(b1-3)[Fuc(a1-4)]GlcNAc
# In short: as §1
# [18] = molecular target: Neu5Ac(a2-3)Gal(b1-3)[Fuc(a1-4)]GlcNAc(b1-3)Gal(b1-4)[Fuc(a1-3)]GlcNAc
# In short: as §1
# [19] = molecular target: Neu5Ac(a2-3)Gal(b1-3)[GlcNAc(b1-6)]GalNAc
# In short: as §1
# [20] = molecular target: Neu5Ac(a2-3)Gal(b1-3)[Neu5Ac(a2-6)]GalNAc
# In short: as §1
# [21] = molecular target: Neu5Ac(a2-3)Gal(b1-3)[Neu5Ac(a2-6)]GlcNAc(b1-3)[Fuc(a1-3)[Gal(b1-4)]GlcNAc(b1-6)]Gal(b1-4)Glc
# In short: as §1
# [22] = molecular target: Neu5Ac(a2-3)Gal(b1-3)]Neu5Ac(a2-3)Gal(b1-4)]GlcNAc
# In short: as §1
# [23] = molecular target: Neu5Ac(a2-3)Gal(b1-4)Glc
# In short: as §1
# [24] = molecular target: Neu5Ac(a2-3)Gal(b1-4)GlcNAc
# In short: as §1
# [25] = molecular target: Neu5Ac(a2-3)Gal(b1-4)GlcNAc(b1-2)Man
# In short: as §1
# [26] = molecular target: Neu5Ac(a2-3)Gal(b1-4)GlcNAc(b1-2)Man(a1-3)[GlcNAc(b1-4)][Neu5Ac(a2-3)Gal(b1-4)GlcNAc(b1-2)Man(a1-6)]Man(b1-4)GlcNAc(b1-4)GlcNAc
# In short: as §1
# [27] = molecular target: Neu5Ac(a2-3)Gal(b1-4)GlcNAc(b1-2)Man(a1-3)[Neu5Ac(a2-3)Gal(b1-4)GlcNAc(b1-2)Man(a1-6)]Man(b1-4)GlcNAc(b1-4)GlcNAc
# In short: as §1
# [28] = molecular target: Neu5Ac(a2-3)Gal(b1-4)GlcNAc(b1-2)Man(a1-3)[Neu5Ac(a2-3)Gal(b1-4)GlcNAc(b1-2)Man(a1-6)]Man(b1-4)GlcNAc(b1-4)[Fuc(a1-6)]GlcNAc
# In short: as §1
# [29] = molecular target: Neu5Ac(a2-3)Gal(b1-4)GlcNAc(b1-2)Man(a1-3)[Neu5Ac(a2-6)Gal(b1-4)GlcNAc(b1-2)Man(a1-6)]Man(b1-4)GlcNAc(b1-4)GlcNAc
# In short: as §1
# [30] = molecular target: Neu5Ac(a2-3)Gal(b1-4)GlcNAc(b1-2)[Neu5Ac(a2-3)Gal(b1-4)GlcNAc(b1-4)]Man(a1-3)[GlcNAc(b1-4)][Neu5Ac(a2-3)Gal(b1-4)GlcNAc(b1-2)[Neu5Ac(a2-3)Gal(b1-4)GlcNAc(b1-6)]Man(a1-6)]Man(b1-4)GlcNAc(b1-4)GlcNAc
# In short: as §1
# [31] = molecular target: Neu5Ac(a2-3)Gal(b1-4)GlcNAc(b1-2)[Neu5Ac(a2-3)Gal(b1-4)GlcNAc(b1-4)]Man(a1-3)[GlcNAc(b1-4)][Neu5Ac(a2-3)Gal(b1-4)GlcNAc(b1-4)Man(a1-6)]Man(b1-4)GlcNAc(b1-4)GlcNAc
# In short: as §1
# [32] = molecular target: Neu5Ac(a2-3)Gal(b1-4)GlcNAc(b1-2)[Neu5Ac(a2-3)Gal(b1-4)GlcNAc(b1-6)]Man(a1-6)[Neu5Ac(a2-3)Gal(b1-4)GlcNAc(b1-2)Man(a1-3)]Man(b1-4)GlcNAc(b1-4)GlcNAc
# In short: as §1
# [33] = molecular target: Neu5Ac(a2-3)Gal(b1-4)GlcNAc(b1-2)[Neu5Ac(a2-3)Gal(b1-4)GlcNAc(b1-6)]Man(a1-6)[Neu5Ac(a2-3)Gal(b1-4)GlcNAc(b1-2)Man(a1-3)][GlcNAc(b1-4)]Man(b1-4)GlcNAc(b1-4)GlcNAc
# In short: as §1
# [34] = molecular target: Neu5Ac(a2-3)Gal(b1-4)GlcNAc(b1-3)Gal
# In short: as §1
# [35] = molecular target: Neu5Ac(a2-3)Gal(b1-4)GlcNAc(b1-3)Gal(b1-3)GlcNAc
# In short: as §1
# [36] = molecular target: Neu5Ac(a2-3)Gal(b1-4)GlcNAc(b1-3)Gal(b1-4)GlcNAc
# In short: as §1
# [37] = molecular target: Neu5Ac(a2-3)Gal(b1-4)GlcNAc(b1-3)Gal(b1-4)GlcNAc(b1-2)Man(a1-3)[Neu5Ac(a2-3)Gal(b1-4)GlcNAc(b1-3)Gal(b1-4)GlcNAc(b1-2)Man(a1-6)]Man(b1-4)GlcNAc(b1-4)GlcNAc
# In short: as §1
binder,measurement,setting,value
B1,glycan array binding signal (z-score),[1],-0.406
same,glycan array binding signal (z-score),[2],-0.277
same,glycan array binding signal (z-score),[3],-0.397
same,glycan array binding signal (z-score),[4],-0.366
same,glycan array binding signal (z-score),[5],-0.437
same,glycan array binding signal (z-score),[6],-0.408
same,glycan array binding signal (z-score),[7],-0.309
same,glycan array binding signal (z-score),[8],-0.396
same,glycan array binding signal (z-score),[9],-0.344
same,glycan array binding signal (z-score),[10],-0.431
same,glycan array binding signal (z-score),[11],-0.413
same,glycan array binding signal (z-score),[12],-0.356
same,glycan array binding signal (z-score),[13],-0.455
same,glycan array binding signal (z-score),[14],0.119
same,glycan array binding signal (z-score),[15],-0.398
same,glycan array binding signal (z-score),[16],-0.398
same,glycan array binding signal (z-score),[17],-0.321
same,glycan array binding signal (z-score),[18],-0.185
same,glycan array binding signal (z-score),[19],-0.378
same,glycan array binding signal (z-score),[20],-0.325
same,glycan array binding signal (z-score),[21],-0.31
same,glycan array binding signal (z-score),[22],-0.399
same,glycan array binding signal (z-score),[23],-0.368
same,glycan array binding signal (z-score),[24],-0.314
same,glycan array binding signal (z-score),[25],-0.278
same,glycan array binding signal (z-score),[26],-0.394
same,glycan array binding signal (z-score),[27],-0.337
same,glycan array binding signal (z-score),[28],-0.23
same,glycan array binding signal (z-score),[29],-0.285
same,glycan array binding signal (z-score),[30],-0.408
same,glycan array binding signal (z-score),[31],-0.373
same,glycan array binding signal (z-score),[32],-0.223
same,glycan array binding signal (z-score),[33],-0.431
same,glycan array binding signal (z-score),[34],-0.257
same,glycan array binding signal (z-score),[35],-0.419
same,glycan array binding signal (z-score),[36],-0.403
same,glycan array binding signal (z-score),[37],-0.056
